{
  "source": "PubChem BioAssay AID588855",
  "about": "(National Center for Advancing Translational Sciences (NCATS), 2011)",
  "note": "Hit rate of the full screen: of about 410,000 compounds, about 5,000 (1.2%) were called active. The shares of active, inactive and inconclusive entries below differ from those in the screen. Calls come from the whole dose curve; as a rule, active = well fitted inhibition curve with a large enough effect; inconclusive = small, poorly fitted or top-dose-only effect; inactive = no such curve, though single readings can be large or run the other way. Potencies of inconclusive entries are doubtful fits and often do not repeat. % is set by controls: 0 for no effect and ±100 for the full control effect; potency is the fitted concentration of half-maximal effect; tags give direction and shape of the fitted curve.",
  "data": [
    {"experiment": "qHTS for Inhibitors of TGF-b; note: nearly all actives have a fitted effect of over 65% in size", "conditions": "HepG2 CAGA-GFP TGF-b/SMAD3 reporter, GFP fluorescence, 18 h, TGF-beta stimulated, 500 pg/mL final; series mostly up to 46.1 µM; activity, negative = inhibition: at the top concentration", "how_it_was_run": "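Inhibition of TGF-beta-driven CAGA-GFP reporter expression in HEPG2 cells is measured by cellular GFP fluorescence after 18 h stimulation with 500 pg/mL recombinant TGF-beta in 1% FBS medium at 37 degrees C.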", "values": [
      {"smiles": "CCOC(=O)C1(C)CCN1C(=O)c1cc(OC)c(OC)c(OC)c1", "note": "(stereo unspecified)", "activity, negative = inhibition": "inactive: -12.7%"},
      {"smiles": "O=C(/C=C/c1cccc(Cl)c1)NCCN1CCOCC1", "activity, negative = inhibition": "inactive: 6.6%"},
      {"smiles": "CCC(Sc1ncnc2sc(C)c(C)c12)C(=O)OC", "note": "(stereo unspecified)", "activity, negative = inhibition": "inactive: -8.59%"},
      {"smiles": "COc1ccc(C(C(=O)NC2CCCC2)N(C(=O)c2ccoc2C)c2ccc(C)cc2)cc1", "note": "(stereo unspecified)", "Potency": "inconclusive: 25.1 µM [inhibitor, single point]"},
      {"smiles": "CCOc1ccccc1NC(=O)Cn1c(=O)sc2ccccc21", "Potency": "inconclusive: 15.8 µM [inhibitor, single point]"},
      {"smiles": "NCCc1c(-c2ccccc2)n(-c2ccccc2)c2ccccc12", "Potency": "inconclusive: 35.5 µM [inhibitor, single point]"},
      {"smiles": "O=C(c1ccc(Br)o1)N1CCN(c2ccc3nnc(-c4ccc(F)cc4)n3n2)CC1", "activity, negative = inhibition": "inactive: -4.49%"},
      {"smiles": "CSc1ccccc1-c1nnc(NC(=O)c2ccc3c(c2)OCCO3)o1", "Potency": "inconclusive: 25.1 µM [inhibitor, single point]"},
      {"smiles": "O=C1CC(=O)N(CCNc2ncc(C(F)(F)F)cc2Cl)C(=O)N1", "activity, negative = inhibition": "inactive: 54%"},
      {"smiles": "CCOc1ccc(-c2[nH]ncc2-c2ccc(Cl)cc2)c(O)c1", "Potency": "inconclusive: 14.1 µM [inhibitor, single point]"},
      {"smiles": "CC(=O)NC(CCCN1C(=O)c2ccccc2C1=O)c1nnn(C)n1", "note": "(stereo unspecified)", "activity, negative = inhibition": "inactive: 15.9%"},
      {"smiles": "Cc1ccc(C)c(CSC2=NCCN2S(=O)(=O)c2ccccc2)c1", "Potency": "inconclusive: 22.4 µM [inhibitor, single point]"},
      {"smiles": "CCOc1ccccc1NC(=O)CSc1nc2c(oc3ccccc32)c(=O)n1-c1ccc(F)cc1", "Potency": "inconclusive: 1.26 µM [inhibitor, full curve, poor fit]"},
      {"smiles": "Cc1cc(NS(=O)(=O)c2ccc(Nc3nc(-c4ccc(C)c(C)c4)cs3)cc2)no1", "Potency": "inconclusive: 35.5 µM [inhibitor, single point]"},
      {"smiles": "Cc1ccccc1CNC(=O)C(=O)NCC1CCCN1S(=O)(=O)c1cccs1", "note": "(stereo unspecified)", "activity, negative = inhibition": "inactive: 20.7%"},
      {"smiles": "CC1CCc2nc(-c3cc4c(ccc5ccccc54)oc3=O)sc2C1", "note": "(stereo unspecified)", "activity, negative = inhibition": "inactive: 5.28%"},
      {"smiles": "O=C(Nc1nnc(/N=C/c2ccco2)s1)c1ccc(F)cc1", "activity, negative = inhibition": "inactive: 2.58%"},
      {"smiles": "C=CCN(CC=C)C(=O)c1cccc(OC2CCN(S(=O)(=O)N(C)C)CC2)c1", "activity, negative = inhibition": "inactive: -0.539%"},
      {"smiles": "Cc1cc(Br)ccc1NC(=O)CSc1c2c(nc3ccccc13)CCC2", "Potency": "inconclusive: 35.5 µM [inhibitor, single point]"},
      {"smiles": "CC1(Oc2cccc(C#N)c2)CCN(Cc2csc3ccccc23)C1", "note": "(stereo unspecified)", "activity, negative = inhibition": "inactive: -3.97%"},
      {"smiles": "Cc1ccccc1C(=O)N1CCN(c2ccc(NC(=S)NC(=O)c3cccs3)cc2)CC1", "Potency": "inconclusive: 15.8 µM [inhibitor, single point]"},
      {"smiles": "O=C(NCc1ccco1)c1c(Cl)cccc1Cl", "activity, negative = inhibition": "inactive: -4.03%"},
      {"smiles": "O=S(=O)(c1ccccc1)N1CCN(Cc2ccc(Cl)cc2)CC1", "Potency": "inconclusive: 22.4 µM [inhibitor, single point]"},
      {"smiles": "O=c1oc2ccccc2cc1-c1nc(-c2ccccc2)no1", "activity, negative = inhibition": "inactive: 0%"},
      {"smiles": "N#CC(c1ccccc1)c1ccc(C(=O)c2ccc(F)cc2)cc1", "note": "(stereo unspecified)", "Potency": "inconclusive: 1.78 µM [inhibitor, partial curve]"},
      {"smiles": "Cc1onc(-c2ccccc2)c1-c1ccnn1S(=O)(=O)c1ccc(Cl)cc1", "Potency": "inconclusive: 10 µM [inhibitor, single point]"},
      {"smiles": "COc1cccc(CCN2CCC(CNS(=O)(=O)c3cc(-c4cc(C)no4)ccc3OC)CC2)c1", "Potency": "inconclusive: 35.5 µM [inhibitor, single point]"},
      {"smiles": "CCCN(CC(=O)NC(=O)NCc1ccccc1)CC(=O)Nc1ccc(F)c(F)c1F", "Potency": "inconclusive: 15.8 µM [inhibitor, single point]"},
      {"smiles": "COc1cccc(NC(=O)c2cc(S(=O)(=O)N3CCc4ccccc43)cn2C)c1", "Potency": "inconclusive: 20 µM [inhibitor, partial curve, poor fit]"},
      {"smiles": "CCc1nc2c(OCc3ccccc3C)cccn2c1N(C)C(=O)C1CC1", "activity, negative = inhibition": "inactive: 2.24%"},
      {"smiles": "O=C(CN1C(=O)NC2(CCCC2)C1=O)NNC(=O)c1ccccc1F", "activity, negative = inhibition": "inactive: 22.9%"},
      {"smiles": "CCOC(=O)c1c(-c2ccc(C)o2)csc1NC(=S)NC(=O)N(C)C", "Potency": "inconclusive: 15.8 µM [inhibitor, partial curve, poor fit]"},
      {"smiles": "CN(CC(=O)Nc1ccc(F)cc1)C(=O)c1cccc(S(=O)(=O)N2CCN(c3ccccc3)CC2)c1", "Potency": "inconclusive: 12.6 µM [inhibitor, single point]"},
      {"smiles": "CCOC(=O)Nc1ccc(OC)cc1S(=O)(=O)N1CCCCC1", "Potency": "inconclusive: 3.55 µM [inhibitor, single point]"},
      {"smiles": "Cc1ccc(S(=O)(=O)Nc2ccc(Cl)cc2C(=O)c2ccccc2)cc1", "Potency": "inconclusive: 35.5 µM [inhibitor, single point]"},
      {"smiles": "CCOC(=O)N1C(=O)[C@](CC)(c2ccccc2)N1C(=O)OCC", "Potency": "inconclusive: 7.08 µM [inhibitor, partial curve, poor fit]"},
      {"smiles": "COc1cc2c(cc1OC)n(CC(=O)c1cc(C)ccc1C)c(=O)n1nc(CCn3nc(C)cc3C)nc21", "activity, negative = inhibition": "inactive: -1.72%"},
      {"smiles": "CCC(=O)Oc1ccc(C(=O)Nc2ccc3c(c2)OCO3)cc1", "Potency": "inconclusive: 2.82 µM [inhibitor, single point]"},
      {"smiles": "Cc1cc(Nc2ccc(F)cc2F)nc(-n2nc(C)cc2C)n1", "Potency": "inconclusive: 3.55 µM [inhibitor, partial curve, poor fit]"},
      {"smiles": "OC1CCCN(Cc2cccc3ccccc23)C1", "note": "(stereo unspecified)", "Potency": "inconclusive: 20 µM [inhibitor, single point]"},
      {"smiles": "O=C(CNC1CCCCC1)Nc1cccc(C(F)(F)F)c1", "activity, negative = inhibition": "inactive: 0.487%"},
      {"smiles": "CCc1cccc(NC(=O)Cn2c3[n+](c4ccc(C(F)(F)F)cc42)CCCCC3)c1", "activity, negative = inhibition": "inactive: 3.59%"},
      {"smiles": "Cn1c(=O)c2cn(Cc3ccc(Cl)cc3)cc2n(C)c1=O", "Potency": "inconclusive: 0.282 µM [inhibitor, full curve, poor fit]"},
      {"smiles": "O=C(N/N=C/c1ccc(OC(F)F)cc1OC(F)F)c1ccc(Br)cc1", "activity, negative = inhibition": "inactive: -6.41%"},
      {"smiles": "COc1ccc(NC(=O)/C(=C\\c2ccc(F)cc2)NC(=O)c2ccco2)cc1", "Potency": "inconclusive: 1.12 µM [inhibitor, partial curve, poor fit]"},
      {"smiles": "CC1=NC(C(F)(F)F)(C(F)(F)F)C2=C(CC(C)(C)CC2=O)N1Cc1ccco1", "Potency": "inconclusive: 35.5 µM [inhibitor, single point]"}
    ]}
  ]
}
